Switch fluorescence ratio data for 120 sequences are collected here from the supplement of paper PMC10126150.

For the data set, the system named is ATP. In words: switch fluorescence ratio, 500 uM ATP over buffer (Cy3 cluster intensity, sum of 5 cycles each) (fold (ratio)); higher = stronger signal-on switching upon ATP binding; sequences stand for … in TCGTCGGCAGCGTCAGATGTGTATAAGAGACAGTTTTTTTTTTTTTTTTTTTTTTTTT…TC. Conditions: aptamer strand: ATP DNA aptamer (quencher-CACCTGGGGGAGTATTGCGGAGGAAGG + anchor), 100 nM annealed; ATP concentration: 500 uM; one replicate. An outline of the steps: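 Values give the fluorescence ratio for each switch-domain sequence, averaged from per-cluster ratios of summed target-cycle to summed buffer-cycle Cy3 intensity. The Cy3-labelled switching-strand clusters sat on a modified Illumina MiSeq flow-cell, were annealed to 100 nM quencher-labelled ATP aptamer, and were imaged in selection buffer, then after 15 min with 500 uM ATP at 22 °C. Five cycles ran with NaOH stripping and re-annealing between them, and clusters outside 100-1000 RFU were excluded.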

Values marked as one replicate rest on one cluster of the flow cell; about a third of the high ones do not repeat.
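Also: ATP exposure 15 min at 22 °C before imaging.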

As for TACTCAAGTT, the switch fluorescence ratio was determined as 1.04.

As to GAAAGTCA, the switch fluorescence ratio came out at 0.967.

Regarding TCAGCGCACA, the switch fluorescence ratio was 1.02.

CCCTAAAGGT: the switch fluorescence ratio came out at 1.09.

Regarding ACTTCCGCTT, the switch fluorescence ratio was found to be 2.06.

Consider AACGTTCTCT, for which the switch fluorescence ratio was determined as 1.05.

Regarding TCAGTGGACT, the switch fluorescence ratio was 0.967.

Consider ACGAATCATA, for which the switch fluorescence ratio amounted to 1.05.

TTGTGGTAAT: the switch fluorescence ratio was 1.03.

Consider ACGGACCTAT, for which the switch fluorescence ratio worked out at 1.28.

Take ATATACCGGT: the switch fluorescence ratio was 1.01.

For ATATCCCACG, the switch fluorescence ratio came to 1.04.

With TGACCCGGGA, the switch fluorescence ratio is 1.

TTTACAGGCT: the switch fluorescence ratio was 0.96.

On to ACTGGATTAA, for which the switch fluorescence ratio came out at 0.994.

On to CCGCTGCCGA, for which the switch fluorescence ratio worked out at 1.7.

On to AGTTGTCATC, for which the switch fluorescence ratio was 0.946.

In the case of ACGAAAGGCT, the switch fluorescence ratio stood at 1.11.

Take GCTGAGCTTT: the switch fluorescence ratio is 1.02.

Turning to CAGACTAGCG, the switch fluorescence ratio turned out to be 0.969.

On to GACTGTCGCC, for which the switch fluorescence ratio is 1.04.

With AGGGGTTGCT, the switch fluorescence ratio worked out at 0.992.

Consider CGCACCCTA, for which the switch fluorescence ratio is 1.18.

For the sequence GGTTTGTGCA, the switch fluorescence ratio is 0.972.

CTTTTGTAT: the switch fluorescence ratio amounted to 0.937.

For the sequence GTGTACTCTA, the switch fluorescence ratio was 1.09.

Turning to CCATACATGG, the switch fluorescence ratio is 1.01.

Take TTAGCAAAAG: the switch fluorescence ratio was 1.12.

For AAAAGGTGT, the switch fluorescence ratio was determined as 1.07.

In the case of GTCACCCTGT, the switch fluorescence ratio was 1.02.

As to CGGCTGTCTG, the switch fluorescence ratio came out at 0.966.

Take AACCTCAGCA: the switch fluorescence ratio amounted to 2.12.

As for GCCGTCCCGC, the switch fluorescence ratio is 1.02.

Take ATGCTCGTGC: the switch fluorescence ratio stood at 0.934.

For CTGAATCTGT, the switch fluorescence ratio is 0.979.

In the case of AGGGAGAGGG, the switch fluorescence ratio was found to be 1.02.

In the case of TGCCACCGGA, the switch fluorescence ratio came out at 0.977.

As for TTTACAAATG, the switch fluorescence ratio came out at 1.03.

Turning to ATGAAGTAGC, the switch fluorescence ratio came out at 0.97.

With TTGCCGTGCG, the switch fluorescence ratio was determined as 0.957.

In the case of CTCCAAAGCA, the switch fluorescence ratio turned out to be 2.53.

With CACAGTTATG, the switch fluorescence ratio was found to be 1.03.

As for TTGTCGGAT, the switch fluorescence ratio is 1.

For CCTTCATCTA, the switch fluorescence ratio worked out at 1.02.

Turning to GGGCGCGTGC, the switch fluorescence ratio is 0.998.

With CCGGGGTAAA, the switch fluorescence ratio turned out to be 1.04.

Consider CAACTTAAGG, for which the switch fluorescence ratio was 0.953.

In the case of TAGAGTAGGT, the switch fluorescence ratio turned out to be 1.04.

Turning to ATTCTCATAA, the switch fluorescence ratio came out at 0.99.

CCGTGGGGGC: the switch fluorescence ratio worked out at 1.28.

CGTAGTGCGG: the switch fluorescence ratio stood at 1.05.

For ACCGAAACCC, the switch fluorescence ratio was found to be 1.24.

Turning to GTTGGGTACC, the switch fluorescence ratio was determined as 1.03.

For TTTGATCACT, the switch fluorescence ratio worked out at 1.05.

Turning to TAGACATGGG, the switch fluorescence ratio came out at 1.1.

Take GACGCCAATG: the switch fluorescence ratio was 1.06.

As for TACGTAGAAA, the switch fluorescence ratio was determined as 1.15.

Consider GAGACGTTTA, for which the switch fluorescence ratio is 1.06.

Regarding CGGAAGATGG, the switch fluorescence ratio came to 0.957.

Take GCCGCCGTAG: the switch fluorescence ratio came to 1.05.

Regarding GTTATGGTTC, the switch fluorescence ratio worked out at 0.97.

Regarding ATTCATGTGG, the switch fluorescence ratio amounted to 0.958.

As to AGAATACGGT, the switch fluorescence ratio was 1.03.

With AGAAATCAGA, the switch fluorescence ratio amounted to 0.973.

Turning to ACTACTGGCA, the switch fluorescence ratio stood at 1.09.

Consider AATTTTGTGC, for which the switch fluorescence ratio is 1.03.

With GATCGAGGCA, the switch fluorescence ratio is 1.05.

Turning to TTCTGTAGCT, the switch fluorescence ratio turned out to be 1.9.

Turning to TCAATGCAGA, the switch fluorescence ratio came out at 0.999.

On to TGATCTGGGA, for which the switch fluorescence ratio was 1.15.

Consider AAGTTAAATG, for which the switch fluorescence ratio is 0.964.

Take GCCGTCGCAA: the switch fluorescence ratio is 1.31.

Regarding TTAATCGATC, the switch fluorescence ratio is 1.01.

In the case of GGCCCGGTAA, the switch fluorescence ratio worked out at 1.01.

As to GTTAGCCAGG, the switch fluorescence ratio came out at 1.08.

As for CAGTGGATAT, the switch fluorescence ratio was 1.01.

AATTGCTCTG: the switch fluorescence ratio came to 0.968.

Turning to CCGGGTCGTC, the switch fluorescence ratio was found to be 1.02.

As for GTATGGACGC, the switch fluorescence ratio turned out to be 1.02.

For CAGATTTCAC, the switch fluorescence ratio was 0.996.

Turning to GCATGGCTCA, the switch fluorescence ratio came to 1.02.

In the case of AAGCTGTCAC, the switch fluorescence ratio is 1.06.

On to GCGCTAAGAA, for which the switch fluorescence ratio came to 1.02.

As for AGGGCTAGGT, the switch fluorescence ratio stood at 0.922.

Regarding CCTATATCGC, the switch fluorescence ratio worked out at 1.12.

With GAATAGGGAT, the switch fluorescence ratio amounted to 1.04.

With TTCTCATCTT, the switch fluorescence ratio turned out to be 0.973.

For the sequence ATTGTGCATC, the switch fluorescence ratio worked out at 1.01.

Regarding CGCCTAGTAA, the switch fluorescence ratio amounted to 1.08.

For GGACTTTTCG, the switch fluorescence ratio is 1.06.

Take TAAGCTACGG: the switch fluorescence ratio is 1.15.

For the sequence AGAATAAGCG, the switch fluorescence ratio was 0.964.

For AGTGGGTCTT, the switch fluorescence ratio came to 0.965.

In the case of TAGGGAACC, the switch fluorescence ratio is 1.94.

As for CCTCCATCT, the switch fluorescence ratio was determined as 1.63.

As to GAATCCGCGT, the switch fluorescence ratio is 2.

Consider ATGTGGCGGT, for which the switch fluorescence ratio was found to be 0.98.

Take AGGCTGGGAC: the switch fluorescence ratio amounted to 1.03.

For the sequence GTCTGAGTTG, the switch fluorescence ratio was 0.955.

As to ACCCGTACTG, the switch fluorescence ratio is 1.18.

With TTGGCTTGGC, the switch fluorescence ratio was determined as 1.02.

Regarding GGTAATCATT, the switch fluorescence ratio is 0.975.

Turning to AAGCATATG, the switch fluorescence ratio came to 1.02.

With ACATAGTTCT, the switch fluorescence ratio was determined as 1.06.

On to GCCAATCTAA, for which the switch fluorescence ratio worked out at 0.953.

For the sequence GGTAGTGACA, the switch fluorescence ratio came to 0.981.

For the sequence TTGATTGTGT, the switch fluorescence ratio is 1.09.

Regarding CGTCAGTTTA, the switch fluorescence ratio amounted to 0.997.

Consider TGGGGCACGA, for which the switch fluorescence ratio amounted to 1.01.

Regarding ATCCAGATA, the switch fluorescence ratio came out at 1.03.

Regarding TAGAGGATCT, the switch fluorescence ratio came to 1.01.

In the case of GGTTCTTATG, the switch fluorescence ratio turned out to be 0.98.

For TCTTCTCTTA, the switch fluorescence ratio turned out to be 1.03.

TGCGTAATGT: the switch fluorescence ratio turned out to be 0.992.

Consider CTCGCGAGTA, for which the switch fluorescence ratio is 0.956.

Take GAGCATGATA: the switch fluorescence ratio worked out at 1.03.

In the case of AGCTGAATG, the switch fluorescence ratio was found to be 1.01.

On to ACCTCGCCCG, for which the switch fluorescence ratio was 1.1.

Consider GGTATTTATG, for which the switch fluorescence ratio amounted to 0.979.

Turning to AGATAGACGG, the switch fluorescence ratio turned out to be 1.02.
